According to US5972902, “DNA encoding human IL-6 receptor antagonist and protein encoded thereby” (dated 1999):

Experiments:
gp130 = gp130 (Homo sapiens (Human), UniProt P40189); experiment: cell-based or functional assay
hIL-6 receptor = hIL-6 receptor (human, UniProt P08887); experiment: receptor binding assay by the method of Savino et al. 1994
Procedure: The proteins IL-6 DFRD/D160R (coded by the cDNA described in SEQ ID NO:4), IL-6 DFRD/W157R/D160R (coded by the cDNA described in SEQ ID NO:5) and IL-6 DFRD/T162D (coded by the cDNA described in SEQ ID NO:6) were produced according to the state of the art, as described (Arcone, R., Pucci, P., Zappacosta, F., Fontaine, V., Malorni, A., Marino, G., and Ciliberto, G., Eur. J. Biochem. 198, 541–547, 1991). The ability of the mutants to bind to the hIL-6 receptor was measured using state of the art methods, as described (Savino, R., Lahm, A., Salvati, A. L., Ciapponi, L., Sporeno, E., Altamura, S., Paonessa, G., Toniatti, C., Ciliberto, G., EMBO J. 13, 1357–1367, 1994). Table 1 below gives the receptor binding levels for wild type IL-6 and for the mutant forms obtained as described in example 1.

B1: wild type human interleukin-6 (ligand)
chain: not shown
Biological activity on human hepatoma cells (gp130): 100%
ability to bind to the IL-6 receptor (% of wild type) (hIL-6 receptor): 100%
